Laboratory results from article PMC12666567.
No constants are given. Whether binding was seen depends on the method and setting. Binding seen in cells or lysates may run through a third protein. Some binding calls cover weakened binding; strength is not graded here.

The chains behind the UniProt entries cited, without tags or fusion partners. Where a name states a change or a piece, a line headed by the entry shows the natural chain unless it says otherwise. A line that says so, or that is headed by a name, gives the form on record, which may keep a tag or linker. Residues count along the entry.
UniProt Q9UBN7: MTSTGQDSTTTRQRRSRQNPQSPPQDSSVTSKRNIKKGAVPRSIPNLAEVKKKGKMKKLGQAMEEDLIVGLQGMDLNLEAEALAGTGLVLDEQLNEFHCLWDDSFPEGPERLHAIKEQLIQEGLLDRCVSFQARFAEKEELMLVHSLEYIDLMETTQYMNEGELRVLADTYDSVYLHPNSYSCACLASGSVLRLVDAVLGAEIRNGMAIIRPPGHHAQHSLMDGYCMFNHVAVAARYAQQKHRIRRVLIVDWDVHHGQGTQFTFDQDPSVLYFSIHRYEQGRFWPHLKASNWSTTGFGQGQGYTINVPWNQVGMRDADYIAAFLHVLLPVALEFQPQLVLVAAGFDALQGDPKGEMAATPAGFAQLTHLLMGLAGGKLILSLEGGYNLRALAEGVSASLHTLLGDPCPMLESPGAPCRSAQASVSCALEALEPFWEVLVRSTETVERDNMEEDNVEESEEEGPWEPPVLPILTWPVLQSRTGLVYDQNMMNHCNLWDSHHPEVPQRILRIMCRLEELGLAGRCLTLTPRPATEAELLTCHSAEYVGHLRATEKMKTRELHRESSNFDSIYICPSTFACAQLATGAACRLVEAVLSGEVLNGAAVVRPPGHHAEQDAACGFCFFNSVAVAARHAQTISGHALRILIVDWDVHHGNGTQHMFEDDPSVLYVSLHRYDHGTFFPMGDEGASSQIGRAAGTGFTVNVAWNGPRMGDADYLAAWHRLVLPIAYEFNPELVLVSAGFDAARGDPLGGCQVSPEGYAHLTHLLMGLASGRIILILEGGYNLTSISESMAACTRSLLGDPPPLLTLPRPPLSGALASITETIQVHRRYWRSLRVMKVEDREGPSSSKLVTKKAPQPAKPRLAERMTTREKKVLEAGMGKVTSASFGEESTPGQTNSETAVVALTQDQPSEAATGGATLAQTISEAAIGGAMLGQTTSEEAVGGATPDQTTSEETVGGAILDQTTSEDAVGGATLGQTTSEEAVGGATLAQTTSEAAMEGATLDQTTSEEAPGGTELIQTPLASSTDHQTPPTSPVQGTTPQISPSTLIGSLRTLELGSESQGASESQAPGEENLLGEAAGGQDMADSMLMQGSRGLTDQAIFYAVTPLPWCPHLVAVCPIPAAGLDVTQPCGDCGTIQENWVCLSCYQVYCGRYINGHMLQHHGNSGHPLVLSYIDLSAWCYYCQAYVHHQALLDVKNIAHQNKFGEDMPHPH
HDAC6 Catalytic Domain 2 (CD2, aa 435-835), Flag-tagged: residues 435-835 of Q9UBN7
UniProt Q86WV6: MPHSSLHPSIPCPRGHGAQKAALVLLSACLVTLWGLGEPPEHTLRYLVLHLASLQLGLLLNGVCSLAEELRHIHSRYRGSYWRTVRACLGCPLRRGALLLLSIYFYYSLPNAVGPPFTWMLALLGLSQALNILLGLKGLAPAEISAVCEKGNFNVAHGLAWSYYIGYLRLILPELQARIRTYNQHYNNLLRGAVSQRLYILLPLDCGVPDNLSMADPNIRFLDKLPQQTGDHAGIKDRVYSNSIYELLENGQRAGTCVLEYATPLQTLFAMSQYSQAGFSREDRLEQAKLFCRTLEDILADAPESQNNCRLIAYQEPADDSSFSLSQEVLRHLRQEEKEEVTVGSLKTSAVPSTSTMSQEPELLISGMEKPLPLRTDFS
UniProt Q8N884: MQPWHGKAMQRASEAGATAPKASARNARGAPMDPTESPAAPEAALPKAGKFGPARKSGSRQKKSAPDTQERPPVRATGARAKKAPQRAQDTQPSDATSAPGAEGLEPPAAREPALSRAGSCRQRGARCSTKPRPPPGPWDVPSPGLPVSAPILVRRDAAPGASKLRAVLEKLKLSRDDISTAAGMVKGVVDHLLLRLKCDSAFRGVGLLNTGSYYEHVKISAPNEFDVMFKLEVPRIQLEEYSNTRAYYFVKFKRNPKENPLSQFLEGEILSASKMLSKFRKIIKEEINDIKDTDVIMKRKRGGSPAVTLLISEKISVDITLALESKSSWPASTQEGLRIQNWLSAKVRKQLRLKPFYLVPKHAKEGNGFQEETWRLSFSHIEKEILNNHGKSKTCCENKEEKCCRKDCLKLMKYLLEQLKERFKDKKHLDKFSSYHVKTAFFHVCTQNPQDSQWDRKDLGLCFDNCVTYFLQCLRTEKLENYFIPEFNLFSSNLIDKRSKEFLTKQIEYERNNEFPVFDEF

What was measured:
[1] = target: Flag-tagged histone deacetylase 6 (HDAC6) (human) (UniProt Q9UBN7); assay: co-IP; HEK293T cells co-transfected with tagged plasmids; lysed in IP buffer (20 mM Tris, pH 7.5, 150 mM NaCl, 1% Triton X-100) with protease/deacetylase/phosphatase inhibitors; anti-tag antibody (FLAG, HA) at 4 °C overnight, Protein A/G magnetic beads, Western blotting; in Fig. 4C with or without co-expressed Flag-HDAC6
[2] = target: HDAC6 Catalytic Domain 2 (CD2, aa 435-835), Flag-tagged (human) (UniProt Q9UBN7); assay: as above
[3] = target: STING, endogenous in THP-1 cells (human (endogenous in THP-1)) (UniProt Q86WV6); assay: co-IP; endogenous proteins in THP-1 cell lysate; immunoprecipitated with anti-STING antibody (IgG as control), probed for HDAC6 and STING

Row | binding [1] | binding [2] | binding [3] | Substance
1 | binds | binds |  | HA-tagged stimulator of interferon genes (STING), full length (from UniProt Q86WV6 1-379)
2 |  |  | binds | HDAC6, endogenous in THP-1 cells (from UniProt Q9UBN7 1-1215) (enzyme)
3 | no binding |  |  | cyclic GMP-AMP synthase (cGAS) (from UniProt Q8N884 1-522) (enzyme)
4 | binds |  |  | STING cGAMP-Binding Domain (CBD, aa 150-379), HA-tagged (from UniProt Q86WV6 150-379) (domain or fragment)
